# Test results: the supplement of paper PMC8728848
# The list shows a part of the results.
# Assays:
# Experiment in all cases: glycan array binding signal (z-score within array); higher = stronger binding
# Details in all cases: glycan notation: IUPAC condensed, linker removed
# [1] = molecular target: Gal(b1-3)GlcNAc(b1-3)Gal(b1-4)GlcNAc(b1-2)[Gal(b1-3)GlcNAc(b1-3)Gal(b1-4)GlcNAc(b1-6)]Man(a1-6)[Gal(b1-3)GlcNAc(b1-3)Gal(b1-4)GlcNAc(b1-2)Man(a1-3)]Man(b1-4)GlcNAc(b1-4)[Fuc(a1-6)]GlcNAc
# Outline: (§1)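 The Consortium for Functional Glycomics database supplied 3228 glycan arrays, of which those lacking an available protein sequence were dropped. The binding signal, a within-array Z-score, was averaged across arrays of the same protein sequence and across linkers. Negative scores can be read as non-binding.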
# [2] = molecular target: Gal(b1-3)GlcNAc(b1-3)Gal(b1-4)GlcNAc(b1-3)Gal(b1-4)GlcNAc(b1-2)[Gal(b1-3)GlcNAc(b1-3)Gal(b1-4)GlcNAc(b1-3)Gal(b1-4)GlcNAc(b1-6)]Man(a1-6)[Gal(b1-3)GlcNAc(b1-3)Gal(b1-4)GlcNAc(b1-3)Gal(b1-4)GlcNAc(b1-2)Man(a1-3)]Man(b1-4)GlcNAc(b1-4)[Fuc(a1-6)]GlcNAc
# Outline: as §1
# [3] = molecular target: Gal(b1-3)GlcNAc(b1-3)Gal(b1-4)GlcNAc(b1-6)[Gal(b1-3)GlcNAc(b1-3)]Gal(b1-4)Glc
# Outline: as §1
# [4] = molecular target: Gal(b1-3)GlcNAc(b1-3)Gal(b1-4)[Fuc(a1-3)]GlcNAc
# Outline: as §1
# [5] = molecular target: Gal(b1-3)GlcNAc(b1-3)Gal(b1-4)[Fuc(a1-3)]GlcNAc(b1-6)[Gal(b1-3)GlcNAc(b1-3)]Gal(b1-4)Glc
# Outline: as §1
# [6] = molecular target: Gal(b1-3)GlcNAc(b1-3)GalNAc
# Outline: as §1
# [7] = molecular target: Gal(b1-3)GlcNAc(b1-6)Gal(b1-4)GlcNAc
# Outline: as §1
# [8] = molecular target: Gal(b1-3)GlcNAc(b1-6)GalNAc
# Outline: as §1
# [9] = molecular target: Gal(b1-3)GlcNAc(b1-6)[Gal(b1-3)]GalNAc
# Outline: as §1
# [10] = molecular target: Gal(b1-3)GlcNAc6S
# Outline: as §1
# [11] = molecular target: Gal(b1-3)[Fuc(a1-4)]GlcNAc
# Outline: as §1
# [12] = molecular target: Gal(b1-3)[Fuc(a1-4)]GlcNAc(b1-2)Man
# Outline: as §1
# [13] = molecular target: Gal(b1-3)[Fuc(a1-4)]GlcNAc(b1-2)Man(a1-3)[Gal(b1-3)[Fuc(a1-4)]GlcNAc(b1-2)Man(a1-6)]Man(b1-4)GlcNAc(b1-4)[Fuc(a1-6)]GlcNAc
# Outline: as §1
# [14] = molecular target: Gal(b1-3)[Fuc(a1-4)]GlcNAc(b1-3)Gal(b1-3)[Fuc(a1-4)]GlcNAc
# Outline: as §1
# [15] = molecular target: Gal(b1-3)[Fuc(a1-4)]GlcNAc(b1-3)Gal(b1-4)[Fuc(a1-3)]GlcNAc
# Outline: as §1
# [16] = molecular target: Gal(b1-3)[Fuc(a1-4)]GlcNAc(b1-6)GalNAc
# Outline: as §1
# [17] = molecular target: Gal(b1-3)[GlcNAc(b1-6)]GalNAc
# Outline: as §1
# [18] = molecular target: Gal(b1-3)[Neu5Ac(a2-6)]GalNAc
# Outline: as §1
# [19] = molecular target: Gal(b1-3)[Neu5Ac(a2-6)]GlcNAc(b1-4)Gal(b1-4)Glc
# Outline: as §1
# [20] = molecular target: Gal(b1-3)[Neu5Ac(b2-6)]GalNAc
# Outline: as §1
# [21] = molecular target: Gal(b1-4)Gal
# Outline: as §1
# [22] = molecular target: Gal(b1-4)GalNAc(a1-3)[Fuc(a1-2)]Gal(b1-4)GlcNAc
# Outline: as §1
# [23] = molecular target: Gal(b1-4)GalNAc(b1-3)[Fuc(a1-2)]Gal(b1-4)GlcNAc
# Outline: as §1
# [24] = molecular target: Gal(b1-4)Glc
# Outline: as §1
# [25] = molecular target: Gal(b1-4)Glc6S
# Outline: as §1
# [26] = molecular target: Gal(b1-4)GlcNAc
# Outline: as §1
# [27] = molecular target: Gal(b1-4)GlcNAc(a1-6)Gal(b1-4)GlcNAc
# Outline: as §1
# [28] = molecular target: Gal(b1-4)GlcNAc(b1-2)Man
# Outline: as §1
# [29] = molecular target: Gal(b1-4)GlcNAc(b1-2)Man(a1-3)Man(b1-4)GlcNAc(b1-4)GlcNAc
# Outline: as §1
# [30] = molecular target: Gal(b1-4)GlcNAc(b1-2)Man(a1-3)[Gal(b1-4)GlcNAc(b1-2)Man(a1-6)]Man(b1-4)GlcNAc(b1-4)GlcNAc
# Outline: as §1
# [31] = molecular target: Gal(b1-4)GlcNAc(b1-2)Man(a1-3)[Gal(b1-4)GlcNAc(b1-2)Man(a1-6)]Man(b1-4)GlcNAc(b1-4)[Fuc(a1-6)]GlcNAc
# Outline: as §1
# [32] = molecular target: Gal(b1-4)GlcNAc(b1-2)Man(a1-3)[Gal(b1-4)GlcNAc(b1-2)Man(a1-6)][Gal(b1-4)GlcNAc(b1-4)]Man(b1-4)GlcNAc(b1-4)[Fuc(a1-6)]GlcNAc
# Outline: as §1
# [33] = molecular target: Gal(b1-4)GlcNAc(b1-2)Man(a1-3)[Gal(b1-4)GlcNAc(b1-2)Man(a1-6)][GlcNAc(b1-4)]Man(b1-4)GlcNAc(b1-4)[Fuc(a1-6)]GlcNAc
# Outline: as §1
# [34] = molecular target: Gal(b1-4)GlcNAc(b1-2)Man(a1-3)[GlcNAc(b1-2)Man(a1-6)]Man(b1-4)GlcNAc(b1-4)GlcNAc
# Outline: as §1
# [35] = molecular target: Gal(b1-4)GlcNAc(b1-2)Man(a1-3)[GlcNAc(b1-4)][Gal(b1-4)GlcNAc(b1-2)Man(a1-6)]Man(b1-4)GlcNAc(b1-4)GlcNAc
# Outline: as §1
# [36] = molecular target: Gal(b1-4)GlcNAc(b1-2)Man(a1-3)[Man(a1-6)]Man(b1-4)GlcNAc(b1-4)GlcNAc
# Outline: as §1
# [37] = molecular target: Gal(b1-4)GlcNAc(b1-2)Man(a1-6)Man(b1-4)GlcNAc(b1-4)GlcNAc
# Outline: as §1
# [38] = molecular target: Gal(b1-4)GlcNAc(b1-2)Man(a1-6)[GlcNAc(b1-2)Man(a1-3)]Man(b1-4)GlcNAc(b1-4)GlcNAc
# Outline: as §1
binder,measurement,setting,value
Clec49 (Caenorhabditis elegans) (protein) MTRLTLLLFGLLGAATAQTCNTGGIYNEQFNRCYQYFTAPAQFSFAEQQCNLLGGHLASVQNGQENALLQSNAANSFKRSNYSDYWIGATDLETSGTWKWTDPSVTFDYSNWQLGEPQSGSDCAIQDKGDGTWSAIGCTSYRPYVCVTPVIMTATCPPITTPIPTTCPTPAPCPIKQCVPSCDQGWTYFSPTDFCYRVYHGEKFNDAEASCVLLGGHLASIHSLTENTFVNNIASCGIKEGKYEHLAWIGMRKVGQDWVWTDGTPSDYFNWAPKQPDNPKKELCVQTAPDLSHDKWYENWNNLECNEVMRAYICKKASIHN,glycan array binding signal (z-score),[1],0.996
same,glycan array binding signal (z-score),[2],-0.063
same,glycan array binding signal (z-score),[3],0.535
same,glycan array binding signal (z-score),[4],0.103
same,glycan array binding signal (z-score),[5],0.869
same,glycan array binding signal (z-score),[6],-0.445
same,glycan array binding signal (z-score),[7],0.07
same,glycan array binding signal (z-score),[8],0.153
same,glycan array binding signal (z-score),[9],0.316
same,glycan array binding signal (z-score),[10],-0.351
same,glycan array binding signal (z-score),[11],-0.6
same,glycan array binding signal (z-score),[12],0.1
same,glycan array binding signal (z-score),[13],-0.736
same,glycan array binding signal (z-score),[14],-0.576
same,glycan array binding signal (z-score),[15],-0.021
same,glycan array binding signal (z-score),[16],0.487
same,glycan array binding signal (z-score),[17],-0.227
same,glycan array binding signal (z-score),[18],0.301
same,glycan array binding signal (z-score),[19],-0.967
same,glycan array binding signal (z-score),[20],0.371
same,glycan array binding signal (z-score),[21],-0.065
same,glycan array binding signal (z-score),[22],-0.949
same,glycan array binding signal (z-score),[23],-0.191
same,glycan array binding signal (z-score),[24],0.227
same,glycan array binding signal (z-score),[25],-0.019
same,glycan array binding signal (z-score),[26],-0.358
same,glycan array binding signal (z-score),[27],-0.188
same,glycan array binding signal (z-score),[28],0.329
same,glycan array binding signal (z-score),[29],-0.227
same,glycan array binding signal (z-score),[30],0.461
same,glycan array binding signal (z-score),[31],0.833
same,glycan array binding signal (z-score),[32],-0.227
same,glycan array binding signal (z-score),[33],-0.553
same,glycan array binding signal (z-score),[34],0.394
same,glycan array binding signal (z-score),[35],-0.305
same,glycan array binding signal (z-score),[36],-0.267
same,glycan array binding signal (z-score),[37],0.253
same,glycan array binding signal (z-score),[38],-0.21
